Results: patent publication US20160251421A1 (AstraZeneca / MedImmune, published 2016)

Molecular target: T1, biotinylated recombinant human Angiopoietin-2 (R&D Systems, Inc. Cat. No. BT623) (human, UniProt O15123 19-496, limits assumed, biotinylated (sites not given))
T1 construct: Bought reagent; also called Ang-2; Ang2
T1 sequence (looked up): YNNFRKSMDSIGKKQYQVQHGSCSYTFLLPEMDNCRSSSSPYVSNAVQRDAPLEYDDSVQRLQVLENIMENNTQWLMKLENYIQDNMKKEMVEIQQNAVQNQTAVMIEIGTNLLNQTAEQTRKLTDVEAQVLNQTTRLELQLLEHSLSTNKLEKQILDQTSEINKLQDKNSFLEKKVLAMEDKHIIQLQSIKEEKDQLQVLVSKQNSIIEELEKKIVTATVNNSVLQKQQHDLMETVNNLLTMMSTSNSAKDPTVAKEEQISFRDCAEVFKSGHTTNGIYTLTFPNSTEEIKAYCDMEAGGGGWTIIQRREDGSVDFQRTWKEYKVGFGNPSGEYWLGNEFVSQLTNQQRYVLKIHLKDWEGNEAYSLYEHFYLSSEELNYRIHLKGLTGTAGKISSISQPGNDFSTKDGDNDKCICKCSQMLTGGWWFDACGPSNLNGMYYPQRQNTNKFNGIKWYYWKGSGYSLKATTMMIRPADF
Experiment: competitive binding ELISA: biotinylated Angiopoietin-2 on plate-coated Tie-2/Fc, purified mAb

- Efficacy (ratio of bound Angiopoietin-2 with mAb (30 µg/ml) versus without mAb): 0.262 ratio
B1: anti-Ang-2 monoclonal antibody 5.78.3 (antibody, V domains shown)
VH: not shown
VL: DIVMTQSPDSLAVSLGERATINCKSSQSVLYSSNNQNFLAWYQQKPGQPPKLLIYWASTRESGVPDRFSGSGSGTDFTLTISSLQAEDVAVYYCHQYYSTPITFGQGTRLEIKR
notes: Fully human IgG kappa from XenoMouse hybridoma (strains XMG2 and XMG4); IgG purified from hybridoma supernatant; also called mAb 5.78.3
